Measured values from the supplement of paper PMC11417369.
The other results are listed elsewhere or left out.

Test system: PfHDP1 homeodomain (GST-tagged)
Experiment: gcPBM binding intensity (ln(normalized median fluorescence intensity)); higher = stronger DNA binding
In short: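 Binding intensity values are the highest Masliner-normalised natural-log median intensity among replicate spots of either probe orientation. The binding step lasted 1 h in 1× PBS with 1% milk, 0.2 mg/ml BSA, 0.5% salmon testes DNA and 0.03% Triton X-100, using GST-tagged P. falciparum DNA-binding domains expressed in E. coli on an Agilent 4 × 180k array of primer-extended double-stranded 36-bp intergenic genomic probes plus negative controls. Alexa488 anti-GST antibody and a 488 nm scan detected bound protein.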

| Sequence | gcPBM binding intensity (ln) |
| --- | --- |
| ATATATTTATTATTAACATGCAATCATTATATATAA [TGCATGCA_site404] | 6.4 |
| TTAATATGAGAATAATGTACAAGAAAATATTACATA [XGTACX_site6609] | 6.3 |
| GATACCTATAGACACACACACATACCTATATACATA [CACACA_site7586] | 7.1 |
| TTTATAAATAAACACACACACATGTGAACATAAAAA [CACACA_site5110] | 6.76 |
| ATTCATCCAATAATGTGAATTATCATGATAAACTTA [TGCATGCA_negctrl_site406] | 6.16 |
| GAAATACATTTTAAAAAATAAGTAATTATAAAATAA [TGCATGCA_negctrl_site303] | 6.07 |
| ATATATGTAAATGAATGTACATTATTTTATATATTA [XGTACX_site8460] | 6.29 |
| ATTATTCTATATGAAACATGCATACATTTGTATTTT [TGCATGCA_site823] | 6.53 |
| ATCAAAATTGTCATTACACACCTTTATTTTTAGAAT [CACACA_site1813] | 6.6 |
| TACAACTTAATATGTACACACAAATATATATATATA [CACACA_site5138] | 9 |
| TTTTTTTTTTTTTTTACACACTCCAATAAAAAAGAA [CACACA_site2119] | 6.49 |
| TTTTTTTATTAATGTAGTACAATATAATGTTATATT [XGTACX_site2295] | 6.72 |
| TAATTTATAAATATAATATTTATGTATATGATGTTT [CACACA_negctrl_site464] | 6.52 |
| TATAAAAATATATTTACACACTATAAATATCGAAAG [CACACA_site6896] | 6.38 |
| ATTATATATATCAGGTGTACGTAAAAAAAATGGACG [XGTACX_site1028] | 7.41 |
| AAAAGAAAAAAAAGTACACACATGTATATTAAGCGT [CACACA_site5402] | 6.63 |
| TTAATGTACAGACACCCACACACAAACAAATATATA [CACACA_site8888] | 7.11 |
| GCGTGCGTGTACTTAACACACATAATATGTATTTAT [CACACA_site1247] | 6.64 |
| TTTTTTTTTCCCCCATGTACATAAATAAGTATATCT [XGTACX_site6965] | 7.43 |

| Sequence | gcPBM binding intensity (ln) |
| --- | --- |
| CTTTCATTTCTATCTACACACATATTTTTTCCAAGT [CACACA_site2972] | 6.89 |
| ATATGTACTATACGCACACACACTCACATATATATA [CACACA_site3239] | 8.19 |
| AATTATATGAAATAAACACACATATGCAATATTGCA [CACACA_site6988] | 7.22 |
| TATATATATAAATACAGTACATATATAATATTTTGA [XGTACX_site637] | 7.02 |
| TAACTTAATTTTAATGCACACAATTTATATATATAT [CACACA_site6022] | 10.5 |
| AAAAATATATATATATATATATATATATTATTTTTT [TGCATGCA_negctrl_site378] | 7 |
| TTCAAGATTTATTATACACACATATTAAAATATATA [CACACA_site4479] | 6.61 |
| AAAAAATTATTATGAACACACATTTATTATATTCAT [CACACA_site1566] | 6.03 |
| AATCTATCAAAGTGTACATGCAATAAAAAAAAAAAA [TGCATGCA_site103] | 6.74 |
| AAACATTTTCATTTGACACACATCATATATTTATAT [CACACA_site1794] | 6.76 |
| ATATATATATAAATATGTACATATATATATTATATA [XGTACX_site120] | 8.27 |
| TATAAGATTATACAAAGTACATATAAATAATATATT [XGTACX_site1917] | 5.96 |
| ATGGGTTAAAAATGCACACAAAAAAATATACAGATA [CACACA_site4321] | 9.78 |
| TGAAATAAAAAATATAGTACTCGTTCGTAACCAAAA [XGTACX_site413] | 6.17 |
| TTAAAAAAAGATTATACACACACATATATAAACATA [CACACA_site8136] | 6.7 |
| TCCTCTTTTATTTTTACACACGCGTAAACATATATA [CACACA_site667] | 7.32 |
| TGTATTAATAAAAATACACACATCATATTATAGAAA [CACACA_site7629] | 6.45 |
| TTTATACTATAATTATGTACTTATAAAAGGAATAAA [XGTACX_site8027] | 6.44 |
| TATATAAATATACATTGTACTCAACATTTTCATTAA [XGTACX_site3690] | 6.21 |

| Sequence | gcPBM binding intensity (ln) |
| --- | --- |
| ATAAACACATCTATATGTACATATATATATATATAC [XGTACX_site347] | 6.72 |
| ATGTAAATACATATATGTACACAAATATATATATAT [XGTACX_site3537] | 9.01 |
| TATATTAAATAAAAAGTGCATGTCTCATAAGATGGA [GTGCAC_site9520] | 7.24 |
| ATAAAATGTTAAGGGTGTACTTTACACATCTCCTAT [XGTACX_site4699] | 6.3 |
| TATAAATAAAGCAGTACACACATTTATTTTAGATAC [CACACA_site7566] | 6.46 |
| ATAGGGAATTTATGCACACAGTTAAGGGGGAAAATT [CACACA_site5183] | 9.92 |
| TTATATTATTTTTATACATGCATTTCTATATATTTT [TGCATGCA_site164] | 7.13 |
| AAGAAAAAATATATATATATATATATATATAATATG [TGCATGCA_negctrl_site417] | 7.32 |
| ATTTGTGATTTGTGTGTGCACGTATTTACAGAACAA [GTGCAC_site9498] | 9.53 |
| ATATATAAGGATGTCACACATAAATATTAACACTAA [CACACA_site5101] | 6.39 |
| ACATAATTAACAAATACACACACACCCACCCACAAA [CACACA_site8069] | 7.85 |
| TTCAATTTTTTATGAACACACAAAAAAAAAAAAAAA [CACACA_site2533] | 6.18 |
| TATGATATATATAATACACACATATACATAAGATCT [CACACA_site1119] | 6.75 |
| AATATATATATATTATCACACACTCACGTTTGACAA [CACACA_site8130] | 6.41 |
| ATTATATCATATATATGTACACATATATAACATGAT [XGTACX_site7] | 6.43 |
| TAAAAAAAACGAACAAGTACACATAAAAAAAAATTA [XGTACX_site5982] | 6.2 |
| TATTCATAATTTTAATGTACAAAATGGTTTGTAATA [XGTACX_site8493] | 6.3 |
| TTGTAATTTATTCAAACACACAATTTGGACCTTTTT [CACACA_site1063] | 6.05 |
